Results taken from US20250304706A1 (Astellas, published 2025).

Target: T1, CD3εδ complex protein (human; alpaca, UniProt P07766 23-126; P04234 22-105)
T1 construct: they are not part of the secreted protein; also called human CD3; CD386 complex protein
Assay: ELISA, CD3 complex immobilized
Description: Binding activities of the anti-TSPAN8/anti-CD3 bispecific antibodies BTE-0001 to BTE-0067 to CD3 were evaluated by the ELISA. ELISA was performed according to a conventional method. The […] complex protein obtained in Example 1-3 was immobilized on a plate. BTE-0001 to BTE-0067 were used as the test antibodies. As a secondary antibody, Goat anti-Human IgG Fc, Multi-Species SP ads-HRP (2014-05, available from SouthernBiotech) was used. TMB+Substrate-Chromogen (S1599, available from Dako) was used as the detection reagent. Infinite M200pro (available from Tecan) was used to measure the absorbance. The EC50 values were calculated using variable slope model (four parameters) in GraphPad Prism with the maximum value in the same plate fixed at the top and the minimum value in the blank in the same plate fixed at the bottom. Since BTE-0001 was always measured in each plate as a control, only the EC50 value of BTE-0001 was expressed as the average value of a plurality of plates.
Binding activities of the 66 anti-TSPAN8/anti-CD3 bispecific antibodies to CD3 were evaluated by the ELISA described in Example 1-4.

UniProt P07766, sequence (P07766 23-126 limits assumed, stated change not applied, form in doubt, chain 1 of 2): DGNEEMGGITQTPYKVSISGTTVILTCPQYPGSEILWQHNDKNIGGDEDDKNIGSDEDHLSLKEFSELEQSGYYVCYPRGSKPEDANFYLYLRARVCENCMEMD
UniProt P07766, sequence (P04234 22-105 limits assumed, stated change not applied, form in doubt, chain 2 of 2, further chain): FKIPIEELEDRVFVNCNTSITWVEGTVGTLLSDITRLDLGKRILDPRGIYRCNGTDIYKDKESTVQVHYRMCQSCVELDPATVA

Row | EC50 [µg/mL] | Binder
1 | 1.64 | BTE-0072 (bispecific antibody, anti-TSPAN8/anti-CD3) heavy: QVQLVESGGGVVQPGGSLRLSCAASGFTFSSYGMHWVRQAPGKGLEWVAVIWYDGRNKYYADSVKGRFTISRDNSKNTLYLQMNSLRAEDTAVYYCTRDHSGSGSYYIDYWGQGTLVTVSSASTKGPSVFPLAPSSKSTSGGTAALGCLVKDYFPEPVTVSWNSGALTSGVHTFPAVLQSSGLYSLSSVVTVPSSSLGTQTYICNVNHKPSNTKVDKKVEPKSCDKTHTCPPCPAPEAAGGPSVFLFPPKPKDTLMISRTPEVTCVVVDVSHEDPEVKFNWYVDGVEVHNAKTKPREEQYNSTYRVVSVLTVLHQDWLNGKEYKCKVSNKALAAPIEKTISKAKGQPREPQVYTLPPSRDELTKNQVSLSCAVKGFYPSDIAVEWESNGQPENNYKTTPPVLDSDGSFFLVSKLTVDKSRWQQGNVFSCSVMHEALHNHYTQKSLSLSPGK light: EIAMTQSPATLSVSPGERATLSCRASQSVSSNLAWYQQKPGQAPRLLIYGASTRATGLPARFSGSGSGTEFTLTISSLQSEDFAVYYCQQYNNFWTFGQGTKVEIKRTVAAPSVFIFPPSDEQLKSGTASVVCLLNNFYPREAKVQWKVDNALQSGNSQESVTEQDSKDSTYSLSSTLTLSKADYEKHKVYACEVTHQGLSSPVTKSFNRGEC scFv-Fc: EVQLVESGGGLIQPGGSLRLSCAASGFTFNTYAMHWVRQAPGKGLEWVARIRSKYNNYATYYADSVKDRFTISRDDSKSTLYLQMNNLRAEDTAVYYCVRHGNFGDSYVSWFAYWGQGTLVTVSSGKPGSGKPGSGKPGSGKPGSQAVVTQEPSLTVSPGGTVTLTCRSSTGAVTTSNYANWVQQKPGQAPRGLIGGTNKRAPGTPARFSGSLLGDKAALTLSGAQPEDEAEYYCALWYSNLWVFGGGTKVTVL[human IgG1 Fc with C220S L234A L235A P329A T366W (EU numbers) cut from this listing]
2 | 1.33 | BTE-0073 (bispecific antibody, anti-TSPAN8/anti-CD3) heavy: QVQLVESGGGVVQPGGSLRLSCAASGFTFSSYGMHWVRQAPGKGLEWVAVIWYDGRNKYYADSVKGRFTISRDNSKNTLYLQMNSLRAEDTAVYYCTRDHSGSGSYYIDYWGQGTLVTVSSASTKGPSVFPLAPSSKSTSGGTAALGCLVKDYFPEPVTVSWNSGALTSGVHTFPAVLQSSGLYSLSSVVTVPSSSLGTQTYICNVNHKPSNTKVDKKVEPKSCDKTHTCPPCPAPEAAGGPSVFLFPPKPKDTLMISRTPEVTCVVVDVSHEDPEVKFNWYVDGVEVHNAKTKPREEQYNSTYRVVSVLTVLHQDWLNGKEYKCKVSNKALAAPIEKTISKAKGQPREPQVYTLPPSRDELTKNQVSLSCAVKGFYPSDIAVEWESNGQPENNYKTTPPVLDSDGSFFLVSKLTVDKSRWQQGNVFSCSVMHEALHNHYTQKSLSLSPGK light: EIAMTQSPATLSVSPGERATLSCRASQSVSSNLAWYQQKPGQAPRLLIYGASTRATGLPARFSGSGSGTEFTLTISSLQSEDFAVYYCQQYNNFWTFGQGTKVEIKRTVAAPSVFIFPPSDEQLKSGTASVVCLLNNFYPREAKVQWKVDNALQSGNSQESVTEQDSKDSTYSLSSTLTLSKADYEKHKVYACEVTHQGLSSPVTKSFNRGEC scFv-Fc: EVQLVESGGGLIQPGGSLRLSCAASGFTFNTYAMAWVRQAPGKGLEWVARIRSKYNNYATYYADSVKDRFTISRDDSKSTLYLQMNNLRAEDTAVYYCVRHGNFGDSYVSWFAYWGQGTLVTVSSGKPGSGKPGSGKPGSGKPGSQAVVTQEPSLTVSPGGTVTLTCRSSTGAVTTSNYANWVQQKPGQAPRGLIGGTNKRAPGTPARFSGSLLGDKAALTLSGAQPEDEAEYYCALWYSNLWVFGGGTKVTVL[human IgG1 Fc with C220S L234A L235A P329A T366W (EU numbers) cut from this listing]
